{"source": "the supplement of paper PMC8007513", "tested_on": "Trichoderma virens ATCC 9645", "assay": "growth yield (OD600) relative to untreated control; higher = less growth inhibition", "conditions": "compound concentration: 100 uM", "procedure,_shortened": "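Trichoderma virens ATCC 9645 spores, from potato dextrose agar plates grown for 7 days, were brought to 15,000 spores ml^−1 in potato dextrose broth and dispensed as 100 μl aliquots into 96-well plates. Each aliquot received library compounds at 100 μM final, with or without a biocide at 200 ng ml^−1, before growth at 30 °C and OD600 readings on a BioTek EL800 at 40 h and 72 h. Growth is expressed relative to the control containing neither agent and represents means of duplicate screens.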", "note": "Where a name gives a salt, the structure may show the parent alone. ± gives the standard error. Out of some 1,300 compounds screened, about 75 (6%) showed an effect of 50% or more. Some of the results follow."}
{"smiles": "CC(C)Cc1ccc([C@H](C)C(=O)O)cc1", "note": "[S-(+)-ibuprofen]", "values": [{"measurement": "growth yield", "setting": "40 h", "value": "101 ± 1.4", "unit": "%"}, {"measurement": "growth yield", "setting": "72 h", "value": "99.7 ± 3.2", "unit": "%"}]}
{"smiles": "CS(=O)(=O)c1ccc([C@@H](O)[C@@H](CO)NC(=O)C(Cl)Cl)cc1", "note": "[Thiamphenicol]", "values": [{"measurement": "growth yield", "setting": "40 h", "value": "102 ± 4.9", "unit": "%"}, {"measurement": "growth yield", "setting": "72 h", "value": "102 ± 4.2", "unit": "%"}]}
{"smiles": "O=C(O)Cc1ccccc1Nc1c(Cl)cccc1Cl", "note": "[Diclofenac sodium]", "values": [{"measurement": "growth yield", "setting": "40 h", "value": "67.5 ± 3.6", "unit": "%"}, {"measurement": "growth yield", "setting": "72 h", "value": "81 ± 4.8", "unit": "%"}]}
{"smiles": "C[C@@H](c1ncncc1F)[C@](O)(Cn1cncn1)c1ccc(F)cc1F", "note": "[Voriconazole]", "values": [{"measurement": "growth yield", "setting": "40 h", "value": "3.02 ± 1.4", "unit": "%"}, {"measurement": "growth yield", "setting": "72 h", "value": "2.41 ± 0.94", "unit": "%"}]}
{"smiles": "CN1CCN(CCCN2c3ccccc3Sc3ccc(S(=O)(=O)N(C)C)cc32)CC1", "note": "[Thioproperazine dimesylate]", "values": [{"measurement": "growth yield", "setting": "40 h", "value": "64.5 ± 11", "unit": "%"}, {"measurement": "growth yield", "setting": "72 h", "value": "90.7 ± 4.1", "unit": "%"}]}
{"smiles": "CCOC(=O)Nc1ccc2c(c1)N(C(=O)CCN1CCOCC1)c1ccccc1S2", "note": "[Moricizine hydrochloride]", "values": [{"measurement": "growth yield", "setting": "40 h", "value": "111 ± 12", "unit": "%"}, {"measurement": "growth yield", "setting": "72 h", "value": "106 ± 9.9", "unit": "%"}]}
{"smiles": "COC(=O)[C@H]1[C@H]2C[C@@H]3c4[nH]c5cc(OC)ccc5c4CCN3C[C@H]2C[C@@H](OC(=O)c2cc(OC)c(OC)c(OC)c2)[C@@H]1OC", "note": "[Reserpine]", "values": [{"measurement": "growth yield", "setting": "40 h", "value": "107 ± 5.4", "unit": "%"}, {"measurement": "growth yield", "setting": "72 h", "value": "107 ± 2.8", "unit": "%"}]}
{"smiles": "CC(C)C[C@H](NC(=O)[C@@H](O)[C@H](N)Cc1ccccc1)C(=O)O", "note": "[Ubenimex]", "values": [{"measurement": "growth yield", "setting": "40 h", "value": "107 ± 7", "unit": "%"}, {"measurement": "growth yield", "setting": "72 h", "value": "107 ± 7.1", "unit": "%"}]}
{"smiles": "CNC(=C[N+](=O)[O-])NCCSCc1ccc(CN(C)C)o1", "note": "[Ranitidine hydrochloride]", "values": [{"measurement": "growth yield", "setting": "40 h", "value": "100 ± 3.5", "unit": "%"}, {"measurement": "growth yield", "setting": "72 h", "value": "101 ± 2.2", "unit": "%"}]}
{"smiles": "CCN(CC)CCCC(C)Nc1c2ccc(Cl)cc2nc2ccc(OC)cc12", "note": "(centres undefined) [Quinacrine dihydrochloride hydrate]", "values": [{"measurement": "growth yield", "setting": "40 h", "value": "94.4 ± 1.9", "unit": "%"}, {"measurement": "growth yield", "setting": "72 h", "value": "95.54 ± 0.94", "unit": "%"}]}
{"smiles": "CCCCCCCCCCCCCCCC[N+](C)(C)CCN(Cc1ccc(OC)cc1)c1ncccn1", "note": "[Thonzonium bromide]", "values": [{"measurement": "growth yield", "setting": "40 h", "value": 0, "unit": "%"}, {"measurement": "growth yield", "setting": "72 h", "value": 0, "unit": "%"}]}
{"smiles": "C#C[C@]1(O)CC[C@H]2[C@@H]3CCc4cc(OC)ccc4[C@H]3CC[C@@]21C", "note": "[Ethynylestradiol 3-methyl ether]", "values": [{"measurement": "growth yield", "setting": "40 h", "value": "85.5 ± 0.95", "unit": "%"}, {"measurement": "growth yield", "setting": "72 h", "value": "86.1 ± 0.73", "unit": "%"}]}
{"smiles": "CC(C)NCC(O)c1ccc(NS(C)(=O)=O)cc1", "note": "(centres undefined) [Sotalol hydrochloride]", "values": [{"measurement": "growth yield", "setting": "40 h", "value": "106 ± 3.3", "unit": "%"}, {"measurement": "growth yield", "setting": "72 h", "value": "103 ± 2.1", "unit": "%"}]}
{"smiles": "CN(CCOc1ccc(NS(C)(=O)=O)cc1)CCc1ccc(NS(C)(=O)=O)cc1", "note": "[Dofetilide]", "values": [{"measurement": "growth yield", "setting": "40 h", "value": "100 ± 5.9", "unit": "%"}, {"measurement": "growth yield", "setting": "72 h", "value": "98.7 ± 4.3", "unit": "%"}]}
{"smiles": "CC(=O)N1CCN(c2ccc(OCC3COC(Cn4ccnc4)(c4ccc(Cl)cc4Cl)O3)cc2)CC1", "note": "(centres undefined) [Ketoconazole]", "values": [{"measurement": "growth yield", "setting": "40 h", "value": "2.22 ± 1.3", "unit": "%"}, {"measurement": "growth yield", "setting": "72 h", "value": "1.68 ± 0.84", "unit": "%"}]}
{"smiles": "CCn1cc(C(=O)O)c(=O)c2cc(F)c(N3CCN(C)CC3)cc21", "note": "[Pefloxacine]", "values": [{"measurement": "growth yield", "setting": "40 h", "value": "98.2 ± 4.5", "unit": "%"}, {"measurement": "growth yield", "setting": "72 h", "value": "97.4 ± 5.3", "unit": "%"}]}
{"smiles": "C[C@@H]1CN(c2c(F)c(N)c3c(=O)c(C(=O)O)cn(C4CC4)c3c2F)C[C@H](C)N1", "note": "[Sparfloxacin]", "values": [{"measurement": "growth yield", "setting": "40 h", "value": "98.3 ± 1.8", "unit": "%"}, {"measurement": "growth yield", "setting": "72 h", "value": "97.7 ± 1.5", "unit": "%"}]}
{"smiles": "C[C@]12C=CC(=O)C=C1CC[C@@H]1[C@@H]2C(=O)C[C@@]2(C)[C@H]1CC[C@]2(O)C(=O)CO", "note": "[Prednisone]", "values": [{"measurement": "growth yield", "setting": "40 h", "value": "105 ± 4.3", "unit": "%"}, {"measurement": "growth yield", "setting": "72 h", "value": "98.1 ± 5.1", "unit": "%"}]}
{"smiles": "CCn1cc(C(=O)O)c(=O)c2cc(F)c(N3CCNC(C)C3)c(F)c21", "note": "(centres undefined) [Lomefloxacin hydrochloride]", "values": [{"measurement": "growth yield", "setting": "40 h", "value": "93.9 ± 3", "unit": "%"}, {"measurement": "growth yield", "setting": "72 h", "value": "92.4 ± 1.6", "unit": "%"}]}
{"smiles": "CS(=O)(=O)Nc1ccc([N+](=O)[O-])cc1Oc1ccccc1", "note": "[Nimesulide]", "values": [{"measurement": "growth yield", "setting": "40 h", "value": "92.1 ± 5.1", "unit": "%"}, {"measurement": "growth yield", "setting": "72 h", "value": "99.7 ± 1.6", "unit": "%"}]}
{"smiles": "COc1cc(C)nc(-n2nc(C)cc2OC)n1", "note": "[Epirizole]", "values": [{"measurement": "growth yield", "setting": "40 h", "value": "111 ± 3.8", "unit": "%"}, {"measurement": "growth yield", "setting": "72 h", "value": "109 ± 3.8", "unit": "%"}]}
{"smiles": "CNC(=C[N+](=O)[O-])NCCSCc1csc(CN(C)C)n1", "note": "[Nizatidine]", "values": [{"measurement": "growth yield", "setting": "40 h", "value": "104 ± 1.9", "unit": "%"}, {"measurement": "growth yield", "setting": "72 h", "value": "99 ± 4.8", "unit": "%"}]}
{"smiles": "CC(C)CN(C[C@@H](O)[C@H](Cc1ccccc1)NC(=O)O[C@H]1CCOC1)S(=O)(=O)c1ccc(N)cc1", "note": "[Amprenavir]", "values": [{"measurement": "growth yield", "setting": "40 h", "value": "106.7 ± 0.95", "unit": "%"}, {"measurement": "growth yield", "setting": "72 h", "value": "108.3 ± 0.52", "unit": "%"}]}
{"smiles": "CNCCC=C1c2ccccc2CCc2ccccc21", "note": "[Nortriptyline hydrochloride]", "values": [{"measurement": "growth yield", "setting": "40 h", "value": "98.5 ± 2.5", "unit": "%"}, {"measurement": "growth yield", "setting": "72 h", "value": "102.9 ± 0.32", "unit": "%"}]}
{"smiles": "C[C@H]1[C@H](NC(=O)/C(=N\\OC(C)(C)C(=O)O)c2csc(N)n2)C(=O)N1S(=O)(=O)O", "note": "[Aztreonam]", "values": [{"measurement": "growth yield", "setting": "40 h", "value": "102 ± 1.8", "unit": "%"}, {"measurement": "growth yield", "setting": "72 h", "value": "104 ± 2.6", "unit": "%"}]}
{"smiles": "CCc1c2c(nc3ccc(OC(=O)N4CCC(N5CCCCC5)CC4)cc13)-c1cc3c(c(=O)n1C2)COC(=O)[C@]3(O)CC", "note": "[Irinotecan hydrochloride trihydrate]", "values": [{"measurement": "growth yield", "setting": "40 h", "value": "109.1 ± 0.79", "unit": "%"}, {"measurement": "growth yield", "setting": "72 h", "value": "104.7 ± 0.63", "unit": "%"}]}
{"smiles": "Cc1ccc(/C(=C\\CN2CCCC2)c2ccccn2)cc1", "note": "[Triprolidine hydrochloride]", "values": [{"measurement": "growth yield", "setting": "40 h", "value": "100.7 ± 0.32", "unit": "%"}, {"measurement": "growth yield", "setting": "72 h", "value": "103 ± 1.6", "unit": "%"}]}
{"smiles": "CC(C)(O/N=C(\\C(=O)N[C@@H]1C(=O)N2C(C(=O)[O-])=C(C[n+]3ccccc3)CS[C@H]12)c1csc(N)n1)C(=O)O", "note": "[Ceftazidime pentahydrate]", "values": [{"measurement": "growth yield", "setting": "40 h", "value": 102, "unit": "%"}, {"measurement": "growth yield", "setting": "72 h", "value": "102 ± 1.1", "unit": "%"}]}
{"smiles": "Cc1c(Cl)cccc1Nc1ncccc1C(=O)O", "note": "[Clonixin Lysinate]", "values": [{"measurement": "growth yield", "setting": "40 h", "value": "88.5 ± 5.6", "unit": "%"}, {"measurement": "growth yield", "setting": "72 h", "value": "87.7 ± 3.4", "unit": "%"}]}
{"smiles": "CN1CCN(C(c2ccccc2)c2ccc(Cl)cc2)CC1", "note": "(centres undefined) [Chlorcyclizine hydrochloride]", "values": [{"measurement": "growth yield", "setting": "40 h", "value": "86.25 ± 0.16", "unit": "%"}, {"measurement": "growth yield", "setting": "72 h", "value": "92.9 ± 1.3", "unit": "%"}]}
{"smiles": "O=C(N/N=C/c1ccc([N+](=O)[O-])o1)c1ccc(O)cc1", "note": "[Nifuroxazide]", "values": [{"measurement": "growth yield", "setting": "40 h", "value": "90.1 ± 2.4", "unit": "%"}, {"measurement": "growth yield", "setting": "72 h", "value": "89 ± 2.2", "unit": "%"}]}
{"smiles": "CCC(=O)[C@@]1(C)[C@H](C)C[C@H]2[C@@H]3CCC4=CC(=O)C=C[C@]4(C)[C@H]3[C@@H](O)C[C@@]21C", "note": "[Rimexolone]", "values": [{"measurement": "growth yield", "setting": "40 h", "value": "112 ± 14", "unit": "%"}, {"measurement": "growth yield", "setting": "72 h", "value": "106 ± 8.3", "unit": "%"}]}
